Reference: paper PMC10752582 (2023)

What was measured:
[1] = target: 6xHis-BRAF kinase domain, wild type (amino acids 442-723 with 16 solubilizing mutations) (UniProt P15056 442-723, I543A | I544S | I551 K | Q562R | L588N | K630S | F667E | Y673S | A688R | L706S …, biotin (Sulfo-NHS-biotin, 50 molar excess) in the pull-downs on streptavidin beads); test: SPR
[2] = target: 6xHis-BRAF kinase domain D594G (amino acids 442-723 with 16 solubilizing mutations) (UniProt P15056 442-723, D594G | I543A | I544S | I551 K | Q562R | L588N | K630S | F667E | Y673S | A688R …, biotin (Sulfo-NHS-biotin, 50 molar excess) in the pull-downs on streptavidin beads); test: SPR

B1: His/MBP-BRAF NT1 ([…]) (domain or fragment)
chain: MAALSGGGGGGAEPGQALFNGDMEPEAGAGAGAAASSAADPAIPEEVWNIKQMIKLTQEHIEALLDKFGGEHNPPSIYLEAYEEYTSKLDALQQREQQLLESLGNGTDFSVSSSASMDTVTSSSSSSLSVLPSSLSVFQNPTDVARSNPK[about 80 residues omitted here]ENVPLTTHNFVRKTFFTLAFCDFCRKLLFQGFRCQTCGYKFHQRCSTEVPLMCVNYDQLDL
**Q.** Which results are given for B1?
**A.** Kd [1]: > 400 nM; Kd [2]: > 400 nM
